In PMC11335210:
Results are given in words; binding and its absence hold for the method and conditions named. In cells and extracts the contact can be indirect. Some binding calls cover weakened binding; strength is not graded here.

What was measured:
[1] = molecular target: T1, ARHGEF2 (also called GEFH1) (mouse (endogenous in mouse keratinocytes)) (UniProt Q60875); assay: co-IP; anti-ARHGEF2 antibody and Protein A agarose on lysates of WT and PKP4-KO keratinocytes kept 24 h in HCM; normal rabbit IgG as control; IP buffer with 1% NP-40, 137 mM NaCl; western blot
T1 sequence: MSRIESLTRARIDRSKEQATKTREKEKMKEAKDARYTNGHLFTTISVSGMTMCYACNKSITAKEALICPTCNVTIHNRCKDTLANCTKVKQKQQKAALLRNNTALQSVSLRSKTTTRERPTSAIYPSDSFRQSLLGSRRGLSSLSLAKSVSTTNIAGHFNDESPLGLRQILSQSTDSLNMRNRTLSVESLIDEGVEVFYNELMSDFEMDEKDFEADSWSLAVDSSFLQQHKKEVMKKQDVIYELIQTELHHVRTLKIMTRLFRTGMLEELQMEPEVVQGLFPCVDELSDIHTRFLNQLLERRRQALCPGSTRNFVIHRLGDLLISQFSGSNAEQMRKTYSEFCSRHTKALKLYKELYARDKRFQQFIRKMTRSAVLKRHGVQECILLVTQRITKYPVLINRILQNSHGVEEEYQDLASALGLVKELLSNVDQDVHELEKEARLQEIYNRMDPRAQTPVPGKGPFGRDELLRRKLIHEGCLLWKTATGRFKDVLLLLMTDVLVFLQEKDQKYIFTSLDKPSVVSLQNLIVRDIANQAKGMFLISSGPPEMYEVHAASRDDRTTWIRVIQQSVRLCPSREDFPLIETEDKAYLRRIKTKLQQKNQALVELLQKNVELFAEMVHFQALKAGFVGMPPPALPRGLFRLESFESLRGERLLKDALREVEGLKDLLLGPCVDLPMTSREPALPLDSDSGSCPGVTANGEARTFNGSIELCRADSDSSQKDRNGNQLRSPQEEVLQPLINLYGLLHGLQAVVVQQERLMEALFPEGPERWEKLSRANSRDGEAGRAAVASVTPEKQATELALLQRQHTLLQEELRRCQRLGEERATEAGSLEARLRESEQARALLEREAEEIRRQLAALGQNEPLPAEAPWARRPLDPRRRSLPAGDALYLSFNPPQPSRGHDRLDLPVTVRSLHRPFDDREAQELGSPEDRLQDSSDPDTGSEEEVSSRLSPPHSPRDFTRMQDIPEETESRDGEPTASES

[2] = molecular target: T2, ARHGAP23 (mouse (endogenous in mouse keratinocytes)) (UniProt Q69ZH9); assay: co-IP; anti-ARHGAP23 antibody and Protein A agarose on lysates of WT and PKP4-KO keratinocytes kept 24 h in HCM; normal rabbit IgG as control; IP buffer with 1% NP-40, 137 mM NaCl; western blot
T2 sequence: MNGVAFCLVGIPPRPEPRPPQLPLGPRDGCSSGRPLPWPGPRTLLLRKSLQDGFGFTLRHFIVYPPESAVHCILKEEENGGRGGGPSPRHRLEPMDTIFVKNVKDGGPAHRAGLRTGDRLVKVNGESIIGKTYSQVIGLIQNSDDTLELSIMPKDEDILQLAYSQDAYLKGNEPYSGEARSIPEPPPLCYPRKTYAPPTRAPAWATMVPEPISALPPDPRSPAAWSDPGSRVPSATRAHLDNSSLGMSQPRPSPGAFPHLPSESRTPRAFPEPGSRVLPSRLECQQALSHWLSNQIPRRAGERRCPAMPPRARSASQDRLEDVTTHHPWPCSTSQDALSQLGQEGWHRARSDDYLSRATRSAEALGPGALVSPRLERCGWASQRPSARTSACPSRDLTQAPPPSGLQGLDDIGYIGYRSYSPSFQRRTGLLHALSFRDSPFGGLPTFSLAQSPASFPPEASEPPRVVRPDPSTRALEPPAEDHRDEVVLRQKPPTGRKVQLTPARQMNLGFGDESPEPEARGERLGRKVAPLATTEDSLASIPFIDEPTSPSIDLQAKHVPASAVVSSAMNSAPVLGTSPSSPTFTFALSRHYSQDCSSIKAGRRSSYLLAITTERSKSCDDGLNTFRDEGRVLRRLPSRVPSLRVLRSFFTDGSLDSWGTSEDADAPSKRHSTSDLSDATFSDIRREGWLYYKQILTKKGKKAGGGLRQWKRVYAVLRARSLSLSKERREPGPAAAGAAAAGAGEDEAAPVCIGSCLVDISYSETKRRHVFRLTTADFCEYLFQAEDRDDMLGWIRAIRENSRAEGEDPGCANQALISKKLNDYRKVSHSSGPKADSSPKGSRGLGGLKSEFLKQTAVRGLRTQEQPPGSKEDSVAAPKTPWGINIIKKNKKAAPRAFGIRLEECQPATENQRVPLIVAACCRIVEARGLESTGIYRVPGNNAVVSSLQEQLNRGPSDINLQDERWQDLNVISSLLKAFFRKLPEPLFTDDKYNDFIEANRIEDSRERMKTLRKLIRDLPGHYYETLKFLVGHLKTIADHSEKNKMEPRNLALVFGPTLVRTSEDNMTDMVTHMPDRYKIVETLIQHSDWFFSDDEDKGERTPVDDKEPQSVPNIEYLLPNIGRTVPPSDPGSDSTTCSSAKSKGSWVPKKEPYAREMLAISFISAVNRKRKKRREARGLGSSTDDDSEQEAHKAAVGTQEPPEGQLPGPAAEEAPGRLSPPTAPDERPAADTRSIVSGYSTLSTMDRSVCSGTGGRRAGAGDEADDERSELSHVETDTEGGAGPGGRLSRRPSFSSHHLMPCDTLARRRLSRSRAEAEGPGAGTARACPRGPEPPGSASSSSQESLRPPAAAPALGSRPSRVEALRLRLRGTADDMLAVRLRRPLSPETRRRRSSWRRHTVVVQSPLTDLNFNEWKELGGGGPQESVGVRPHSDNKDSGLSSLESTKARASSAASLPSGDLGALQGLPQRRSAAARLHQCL

binding [1]: binds
binding [2]: binds
B1: Plakophilin 4 (PKP4), endogenous in mouse keratinocytes (protein, UniProt Q68FH0 1-1190)
chain: MPAPEQGSLVEEGQPQTHQEAVSTGPGMEPETTATTILASVKEQELQFQRLTRELEVERQIVASQLERCRLGAESPSIASTSSTEKSFPWRSTDVPNPGVSKPRVSDTIHPNNYLIRTEPEQGTLYSPEQTSLHESEGSLGNSRSSTQMNSYSDSGYQEAGSFHNSQTVNKADSRQHPFTGSTSNHVVRTSRAEGQTLVQPSVANRAMRRVSSVPSRAQSPSYVTSTGVSPSRGSLRTSLGSGFGSPSVTDSRPLNPSAYSSSTLPAQRAASPYSQRPASPTAVRRVGSVTSRQTSNPNGPVPQYQTTTRVGSPLTLTDAQTRVASPSQGQVGSSSPKRSGMTAVPQHLGPSLQRTVHDMDQFGQQQYDIYERMVPPRPDSLTGLRSSYASQHSQLGQELRSAVSPDLHITPIYEGRTYYSPVYRSPNHGTVELQGSQTALYRTGSVGIGNLQRTSSQRSTLTYQRNNYALNTAATYAEPYRPVQYRVQECSYNRLQHTGPADDGATRSPSIDSIQKDPREFAWRDPELPEVIHMLQHQFPSVQANAAAYLQHLCFGDNKVKMEVYRLGGIKHLVDLLDHRVLEVQKNACGALRNLVFGKSTDENKIAMKNVGGIPALLRLLRKSIDAEVRELVTGVLWNLSSCDAVKMTIIRDALSTLTNTVIVPHSGWNNSSFDDDHKIKFQTSLVLRNTTGCLRNLSSAGEEARKQMRSCEGLVDSLLYVIHTCVNTSDYDSKTVENCVCTLRNLSYRLELEVPQARLLGLNELDDLLGKESPSKDSEPSCWGKKKKKKKRTPQEDQWDGVGPIPGLSKSPKGVEMLWHPSVVKPYLTLLAESSNPATLEGSAGSLQNLSAGNWKFAAYIRAAVRKEKGLPILVELLRMDNDRVVSSVATALRNMALDVRNKELIGKYAMRDLVNRLPGGNGPSILSDETVAAICCALHEVTSKNMENAKALADSGGIEKLVNITKGRGDRSSLKVVKAAAQVLNTLWQYRDLRSIYKKDGWNQNHFITPVSTLERDRFKSHPSLSTTNQQMSPIIQSVGSTSSSPALLGIREPRSEYDRTQPPMQYYNSQGDTTHKGLYPGSSKPSPIYISSYSSPAREQNRRLQHQQLYYQDDSTRKTLDAYRLYLQSPRSYEDPYCDDRVHFPASTDYSTQYGLKSTTNYVDFYSTKRPSYRAEQYPGSPDSWV
